Drawing on article PMC9338292, this text covers binding for three substances.

The chains behind the UniProt entries cited, without tags or fusion partners.
UniProt P50750: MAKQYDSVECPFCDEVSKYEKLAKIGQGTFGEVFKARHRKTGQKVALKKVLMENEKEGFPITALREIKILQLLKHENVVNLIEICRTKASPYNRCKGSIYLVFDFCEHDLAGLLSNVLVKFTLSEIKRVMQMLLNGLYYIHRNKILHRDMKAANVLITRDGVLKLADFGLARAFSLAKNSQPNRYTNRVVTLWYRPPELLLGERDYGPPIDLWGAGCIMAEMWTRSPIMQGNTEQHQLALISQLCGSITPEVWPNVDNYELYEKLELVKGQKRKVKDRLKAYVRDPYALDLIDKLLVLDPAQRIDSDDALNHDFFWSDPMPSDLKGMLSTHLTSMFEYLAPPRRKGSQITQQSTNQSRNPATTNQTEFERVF
UniProt O94992: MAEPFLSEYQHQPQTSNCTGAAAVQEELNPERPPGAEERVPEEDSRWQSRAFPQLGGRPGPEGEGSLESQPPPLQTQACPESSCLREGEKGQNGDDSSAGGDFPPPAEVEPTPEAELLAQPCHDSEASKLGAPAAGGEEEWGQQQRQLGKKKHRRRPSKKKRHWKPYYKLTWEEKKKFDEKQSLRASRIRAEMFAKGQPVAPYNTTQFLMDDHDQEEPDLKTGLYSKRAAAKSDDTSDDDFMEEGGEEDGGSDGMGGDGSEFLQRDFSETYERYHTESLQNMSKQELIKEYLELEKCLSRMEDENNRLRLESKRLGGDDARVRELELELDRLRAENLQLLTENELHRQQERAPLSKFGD

No constants are given. Whether binding was seen depends on the method and setting. Binding seen in cells or lysates may run through a third protein. Some entries that bind do so weakly or less than the wild type. For some of these results: Sequences can lack the tags named with a protein.

Assay [1] has as its target T1, HA-tagged AFF1 (UniProt P51825).
T1 sequence: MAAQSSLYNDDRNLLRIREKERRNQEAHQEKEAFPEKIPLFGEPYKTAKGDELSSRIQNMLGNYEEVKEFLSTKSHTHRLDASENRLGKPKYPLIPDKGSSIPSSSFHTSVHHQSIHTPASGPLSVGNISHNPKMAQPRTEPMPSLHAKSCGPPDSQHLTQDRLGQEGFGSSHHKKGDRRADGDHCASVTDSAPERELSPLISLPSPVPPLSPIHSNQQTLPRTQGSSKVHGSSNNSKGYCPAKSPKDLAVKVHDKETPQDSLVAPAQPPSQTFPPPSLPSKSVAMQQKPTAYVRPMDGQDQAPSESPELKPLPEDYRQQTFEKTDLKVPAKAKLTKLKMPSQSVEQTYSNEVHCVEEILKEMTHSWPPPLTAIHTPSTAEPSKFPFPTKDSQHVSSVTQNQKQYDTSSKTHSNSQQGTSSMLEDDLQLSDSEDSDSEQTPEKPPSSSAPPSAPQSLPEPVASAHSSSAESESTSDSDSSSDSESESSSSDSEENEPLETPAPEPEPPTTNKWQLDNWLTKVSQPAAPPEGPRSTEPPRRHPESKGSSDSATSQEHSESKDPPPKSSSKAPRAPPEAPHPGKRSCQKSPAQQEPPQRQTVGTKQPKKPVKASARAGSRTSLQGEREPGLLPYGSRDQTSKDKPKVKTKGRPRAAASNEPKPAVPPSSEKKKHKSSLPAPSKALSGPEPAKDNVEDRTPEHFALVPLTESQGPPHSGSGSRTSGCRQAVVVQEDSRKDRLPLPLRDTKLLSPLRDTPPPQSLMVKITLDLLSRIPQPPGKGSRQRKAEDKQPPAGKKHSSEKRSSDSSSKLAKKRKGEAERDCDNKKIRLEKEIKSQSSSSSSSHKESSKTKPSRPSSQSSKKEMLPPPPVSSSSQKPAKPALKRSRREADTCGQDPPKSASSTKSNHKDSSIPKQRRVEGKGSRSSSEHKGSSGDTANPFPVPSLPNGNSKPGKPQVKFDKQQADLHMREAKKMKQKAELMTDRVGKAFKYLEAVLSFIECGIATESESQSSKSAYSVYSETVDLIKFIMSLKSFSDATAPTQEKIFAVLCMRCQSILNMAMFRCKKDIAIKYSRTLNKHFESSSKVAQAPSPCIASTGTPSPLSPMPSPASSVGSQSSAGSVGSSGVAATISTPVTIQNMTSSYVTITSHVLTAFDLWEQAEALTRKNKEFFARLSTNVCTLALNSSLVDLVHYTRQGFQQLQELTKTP
The assay can be described thus: co-IP; anti-HA antibody on Protein G magnetic beads, nuclear lysate of keratinocytes expressing HA-AFF1, overnight 4 °C, 150 mM NaCl, 50 mM Tris pH 7.5, NP-40; undifferentiated (progenitor) state; for CDK9 and P-CDK9 also the differentiated state; western blot.

Assay [2] addresses HA-tagged CDK9 (UniProt P50750). The assay can be described thus: co-IP; anti-HA antibody on Protein G magnetic beads, nuclear lysate of undifferentiated keratinocytes expressing HA-CDK9, treated with DMSO as control; western blot for HA and HEXIM1.
The target is the same in assay [3]. The assay can be described thus: co-IP; anti-HA antibody on Protein G magnetic beads, nuclear lysate of undifferentiated keratinocytes expressing HA-CDK9, treated with TPA (PKC activator) for 1 hour; western blot for HA and HEXIM1.
Assay [4] shares this target. The assay can be described thus: co-IP; anti-HA antibody on Protein G magnetic beads, nuclear lysate of undifferentiated keratinocytes expressing HA-CDK9, treated with KL (SEC peptidomimetic inhibitor) for 3 hours; western blot for HA and HEXIM1.
Assay [5] concerns the target T1, HA-tagged AFF1. The assay can be described thus: condition: only keratinocytes in the differentiated state; co-IP; anti-HA antibody on Protein G magnetic beads, nuclear lysate of keratinocytes expressing HA-AFF1 in the differentiated state (100% confluency, 1.2 mM CaCl2, four days); western blot.

Regarding “CDK9 (from UniProt P50750 1-372) (enzyme)”, in the assay with HA-tagged AFF1 [1], the binding entry is “binds”.

As to HEXIM1 (from UniProt O94992 1-359), the binding entry with HA-tagged CDK9 [2] is recorded as “binds”; with HA-tagged CDK9 [3], “no binding (condition: cells treated with TPA for 1 hour)”; with HA-tagged CDK9 [4] it was “no binding (condition: cells treated with KL for 3 hours)”; in the assay with HA-tagged AFF1 [5], “no binding”; in the assay with HA-tagged AFF1 [1], “binds”.

On to “P-CDK9 (phosphorylated threonine 186) (from UniProt P50750 1-372) (enzyme)”, for which, in the assay with HA-tagged AFF1 [1], the binding result is reported as “binds”.
